Test results reported in PubChem BioAssay AID485313 (National Center for Advancing Translational Sciences (NCATS), 2010).
Where “and” joins values, the source holds several entries; their conditions need not be identical. Equal values may be shown once. About 7,600 (2.4%) of roughly 320,000 compounds were called active. This list was built around the results that the source calls inconclusive (neither active nor inactive); the mix of calls is not that of the screen. The call rests on the fitted dose curve; in most records, active means well fitted activation curve with a large enough effect; inconclusive means small, poorly fitted or top-dose-only effect; inactive means no such curve, though single readings can be large or run the other way. Potencies of inconclusive entries are left out as doubtful fits.

Test: qHTS Assay for NPC1 Promoter Activators; further: nearly all actives have a fitted effect of over 60% in size;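 on activation: reporter is driven by a mutant NPC1 promoter; % of control where 0% means no effect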
Conditions: Huh7 NPC1 promoter luciferase reporter, 24 h; series mostly up to 9.22 µM; activation: at the top concentration
Outline: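 Cells: Huh7 expressing luciferase under the NPC1 promoter, 1500/well. Seeded 2 h, compound added, incubated 24 h at 37 °C. Luciferase reagent, 10 min ambient, then luminescence.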
Potency means the concentration at half of the fitted maximal effect; tags describe the fitted curve by direction and shape.

Q: Which Potency does the source give for `COc1cccc(OC)c1OCCCOc1cccc2cccnc12` here?
A: inconclusive [activator, single point]

Q: Which “activation” value does the source give for `Fc1ccc(/C=N/Nc2nnnn2-c2ccccc2)cc1` here?
A: inactive: -5.8%

Q: For `Clc1ccccc1-c1nc(-c2ccncc2)no1`, which Potency is on record?
A: active: 2.82 µM and active: 3.98 µM

Q: Which Potency does the source give for `Cc1ccc(CNc2nc(Cl)c(C#N)s2)cc1` here?
A: inconclusive [activator, partial curve]

Q: Which “activation” value does the source give for `CCOc1cc(/C=N/N2CCN(Cc3ccccc3)CC2)ccc1O` here?
A: inactive: 0.0843%

Q: With `FCCCOc1ccc(-c2nccc(-c3ccc(F)cc3)n2)cc1` as the compound, how does the “activation” value read?
A: inactive: -1.33%

Q: Which Potency does the source give for `O=C(Nc1ccc(Cl)cc1)c1ccc2ncsc2c1` here?
A: active: 2.82 µM

Q: Which Potency does the source give for `CC(CC(=O)Nc1nc2ccccc2[nH]1)c1ccccc1` (centres undefined) here?
A: active: 4.47 µM

Q: With `O=[N+]([O-])c1ccc(-c2cn(-c3ccccc3)c(=S)[nH]2)cc1` as the compound, how does the Potency read?
A: inconclusive [activator, partial curve]

Q: With `O=C(Nc1nc2cc3c(cc2s1)OCO3)c1ccco1` as the compound, how does the Potency read?
A: active: 0.251 µM

Q: For `Nc1ccccc1C(=O)Nc1ccc(Cl)cc1Cl`, which Potency is on record?
A: inconclusive [activator, partial curve]

Q: Which Potency does the source give for `Cn1c2ccccc2c2cnn(CC(=O)Nc3ccc(F)cc3F)c(=O)c21` here?
A: inconclusive [activator, single point]

Q: With `COc1ccc(/C=C/c2noc(-c3ccccc3OC(C)=O)n2)cc1` as the compound, how does the Potency read?
A: inconclusive [activator, partial curve]

Q: For `CSc1ccccc1NC(=O)CN(C)C(=O)C1CCN(C(=O)Nc2ccccc2)CC1`, which “activation” value is on record?
A: inactive: 0.131%

Q: With `CCCCCC(=O)Nc1nc2ccccc2[nH]1` as the compound, how does the Potency read?
A: inconclusive [activator, single point]

Q: Which “activation” value does the source give for `Cc1c(C(=O)N2CCN(C(=O)c3ccccc3)CC2)oc2ccc(F)cc12` here?
A: inactive: -6.34%

Q: With `O=C(Nc1n[nH]c(=S)s1)c1ccc2ccccc2c1` as the compound, how does the Potency read?
A: active: 1.12 µM

Q: Which Potency does the source give for `CNc1sc(C(=O)c2ccccc2F)c(N)c1-c1nc2ccccc2s1` here?
A: active: 3.98 µM

Q: For `CC(C)(C)C(=O)Nc1nnc(SCC(=O)Nc2nccs2)s1`, which “activation” value is on record?
A: inactive: -1.85%

Q: For `CCOC(=O)CNC(=O)c1ccc(OCC(F)(F)F)cc1`, which Potency is on record?
A: inconclusive [activator, partial curve]

Q: For `COc1ccc2[nH]c(=O)c(CN(C)C(=O)c3cccs3)cc2c1`, which “activation” value is on record?
A: inactive: 0.75%

Q: For `CS(=O)(=O)Nc1ccc(C(=O)Nc2ccc3ccccc3c2)cc1`, which Potency is on record?
A: inconclusive [activator, partial curve, poor fit]

Q: Which Potency does the source give for `CCOc1ccc(-c2nc3ccccc3c(=O)o2)cc1` here?
A: active: 3.55 µM

Q: Which Potency does the source give for `COc1ccc2nc(SCC(=O)Nc3ccc4sc(C)nc4c3)c(C#N)cc2c1` here?
A: inconclusive [activator, partial curve]
